The supplement of paper PMC3334620
In all, about 33,000 sequences were measured (“E-score (-0.5 to 0.5)”: median about -0.021, highest 2% from about 0.32 on). The list shows a part of the results.

molecular target: T1, Zap1 (UniProt P47043); assay: PBM E-score (8-mer binding enrichment) (E-score (-0.5 to 0.5)); higher = stronger / more preferred TF binding; most listed sequences are background and not binding sites; settings: protein concentration: 200 nM; construct: GST-full length
T1 sequence: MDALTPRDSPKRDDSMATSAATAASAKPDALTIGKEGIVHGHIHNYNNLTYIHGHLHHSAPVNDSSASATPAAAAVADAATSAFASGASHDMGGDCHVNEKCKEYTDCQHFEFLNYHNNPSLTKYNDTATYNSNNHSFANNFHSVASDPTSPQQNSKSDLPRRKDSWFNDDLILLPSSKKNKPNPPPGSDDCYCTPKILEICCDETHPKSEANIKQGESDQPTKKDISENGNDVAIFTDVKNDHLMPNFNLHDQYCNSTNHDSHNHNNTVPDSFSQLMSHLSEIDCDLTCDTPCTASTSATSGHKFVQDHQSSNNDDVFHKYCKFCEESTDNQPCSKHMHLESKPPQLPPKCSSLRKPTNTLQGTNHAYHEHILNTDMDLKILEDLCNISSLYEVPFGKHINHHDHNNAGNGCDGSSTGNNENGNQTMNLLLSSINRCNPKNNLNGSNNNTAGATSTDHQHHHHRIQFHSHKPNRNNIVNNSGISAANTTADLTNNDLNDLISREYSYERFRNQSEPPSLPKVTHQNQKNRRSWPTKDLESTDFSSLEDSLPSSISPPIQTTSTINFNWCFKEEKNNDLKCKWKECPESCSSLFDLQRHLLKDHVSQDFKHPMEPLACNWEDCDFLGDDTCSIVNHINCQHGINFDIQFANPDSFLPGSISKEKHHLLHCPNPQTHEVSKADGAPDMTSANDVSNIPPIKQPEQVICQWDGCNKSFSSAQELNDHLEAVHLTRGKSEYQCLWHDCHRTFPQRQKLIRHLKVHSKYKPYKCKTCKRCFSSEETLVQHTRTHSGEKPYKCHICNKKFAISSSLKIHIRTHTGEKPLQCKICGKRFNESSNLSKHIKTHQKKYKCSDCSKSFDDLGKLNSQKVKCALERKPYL
Method in brief: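 Full-length yeast transcription factors or their DNA-binding domains, GST-tagged and expressed with PURExpress, were applied at about 100-200 nM to universal all-10-mer Agilent arrays. These arrays had been made double-stranded by primer extension on fresh or once-stripped slides. Detection used fluorescent anti-GST, normalisation used masliner, and E-scores for ungapped eight-base words pooled with reverse complements came from the Universal PBM Analysis Suite.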

| Sequence | PBM E-score |
| --- | --- |
| GGCCCACC | 0.0454 |
| CGATTCTC | -0.217 |
| ACGTACTA | -0.0552 |
| GAGGGGAA | -0.12 |
| GACCCGCA | 0.0858 |
| CCTACTCC | -0.231 |
| GCGCTCCA | -0.299 |
| ATCCTCCG | -0.238 |
| CGACACTC | -0.00732 |
| CTAGTAAC | 0.175 |
| GACAATAA | 0.0358 |
| CAGCGCGG | 0.141 |
| ATCGTCGC | -0.203 |
| CACCGGTG | -0.00604 |
| CGACGGAG | -0.221 |
| ATTGATGG | 0.114 |
| CCTACGAA | -0.00552 |
| GAAGGTCA | 0.232 |
| CCGTTCAC | -0.109 |
| ACCTCCTC | -0.0566 |
| GAATCTCC | -0.052 |
| CCCTTCTC | -0.214 |
| CGCATCGC | -0.144 |
| CCGAAAGA | 0.0452 |
| CTTGTGTA | 0.0615 |

| Sequence | PBM E-score |
| --- | --- |
| AATATAGG | 0.201 |
| TCGAACAA | 0.251 |
| CTGGCTCA | 0.0741 |
| CGTGGGAC | 0.0556 |
| GAAGGAGC | -0.314 |
| ACATCTGG | 0.0376 |
| CTCCACGA | -0.068 |
| ATGCCTTG | -0.106 |
| CCAGGGCG | -0.178 |
| GAATTGAC | -0.0853 |
| AACAAGCC | -0.195 |
| AAAGAGCG | -0.0344 |
| GCCCCACA | 0.0251 |
| GCGGGTCC | -0.0967 |
| CGTCCTTA | -0.133 |
| GCTATTCC | -0.153 |
| CTGATCCA | -0.0745 |
| ACATCAAG | 0.0177 |
| ATCTATAG | 0.0137 |
| GAGTGCTA | -0.153 |
| AACTCCGG | 0.0218 |
| CGCGCTCC | 0.0055 |
| AGTTTGTC | 0.0189 |
| AGTTACCG | 0.297 |
| ACGGTATG | -0.0688 |

| Sequence | PBM E-score |
| --- | --- |
| ATCGCTAC | -0.0302 |
| AAATCAAA | 0.132 |
| TGAACCAA | 0.189 |
| CATATTCG | -0.183 |
| GCGTATAA | 0.118 |
| GTAGACAA | 0.0584 |
| AGAGGAAT | -0.209 |
| CAGTTCTC | -0.00936 |
| GATGCGTA | -0.0736 |
| ATGCCCTG | -0.118 |
| CAAGCTTG | -0.204 |
| ACATAATC | 0.0609 |
| AAACCCCC | -0.0821 |
| CTATCTCA | -0.0196 |
| AGACTTTC | 0.0578 |
| AGAGTATA | -0.237 |
| GAGTTCCC | -0.067 |
| ATGAGCCG | -0.0729 |
| ACCTTCTG | 0.287 |
| CTCGGGTA | 0.266 |
| ACAGGTCA | 0.203 |
| ACAGCGCC | -0.184 |
| AAGACCTA | 0.19 |
| CGCCCGTC | -0.111 |
| AATACGGG | 0.0975 |

| Sequence | PBM E-score |
| --- | --- |
| GTCGGAAA | 0.0429 |
| GTGTACTA | -0.0457 |
| ATTCTACG | -0.108 |
| GCGCCGCC | -0.0941 |
| GTAAGGTA | 0.295 |
| ACCGACAA | -0.00253 |
| AAAAAGCG | 0.0786 |
| GGGGCTCA | -0.181 |
| AAAGAAAT | 0.125 |
| CACTTACA | 0.0157 |
| CCCTATCC | -0.096 |
| GCTGTCGA | -0.164 |
| ATTCCCCG | -0.0885 |
| CACTGCTG | -0.185 |
| CATTTGAG | 0.0623 |
| CGGGACCA | -0.349 |
| AATTTCAT | 0.196 |
| CAACAGTA | -0.00264 |
| AATATTCA | 0.0495 |
| AAGTCCCA | -0.137 |
| AGTAGATC | -0.125 |
| CTGAGTGA | 0.0814 |
| GTTTTCGA | 0.0665 |
| AACGAAAG | 0.0621 |
| GGGGTGGA | -0.0651 |

| Sequence | PBM E-score |
| --- | --- |
| CATTGGTC | -0.00134 |
| CACAAATC | 0.169 |
| AAAGTTCC | 0.00456 |
| TCATGAAA | 0.0953 |
| GAGCCGGC | -0.0316 |
| AGTTTATG | 0.15 |
| CTAAGATA | 0.0311 |
| CACCTCTC | -0.242 |
| ATGTGTCG | 0.044 |
| CAGTTCGG | 0.0968 |
| CGTGAGCC | -0.104 |
| AGCAATAC | 0.0449 |
| ACTTTCCG | -0.0516 |
| ATCAATTA | 0.235 |
| ACCTTGGG | 0.327 |
| AGGTGGCG | 0.114 |
| TGTGTGAA | 0.0282 |
| TCTACAAA | 0.174 |
| AATGTAGT | -0.118 |
| ACTTGAGA | -0.17 |
| AACATGTA | 0.091 |
| AATCTTAT | -0.00936 |
| GAGCGATA | -0.183 |
| ACAGTGCG | -0.273 |
| ACTCCTCG | -0.00893 |

| Sequence | PBM E-score |
| --- | --- |
| AAGAATAT | -0.139 |
| GCGCACAA | 0.0815 |
| CTAGTTGC | -0.196 |
| AGTCGTTA | -0.147 |
| ACGGTGTA | -0.154 |
| CGTCCCCC | -0.321 |
| ATAATCGG | 0.178 |
| ATCTGATG | -0.141 |
| CCTTGTTA | 0.12 |
| ATACCATC | 0.00041 |
| GCGGAAAC | -0.0491 |
| GTATCTAA | 0.207 |
| TAACGAAA | 0.241 |
| AGGCAGTA | -0.236 |
| GGCAACAC | -0.0775 |
| GAACATAC | 0.132 |
| ACAAAAAC | 0.182 |
| TCCGTACA | 0.00697 |
| GACTACAA | -0.0528 |
| ACGAGCGA | -0.106 |
| ATCTCGAC | 0.0101 |
| CGCAGATA | -0.0113 |
| CAGGAGGA | -0.181 |
| GAATGGCA | -0.0917 |
| CATAATGG | 0.0138 |

| Sequence | PBM E-score |
| --- | --- |
| GTCGAATA | -0.0377 |
| GATATGAA | 0.161 |
| AGACGGAG | -0.126 |
| ATACGCTA | -0.127 |
| CCGTTACC | 0.303 |
| CACAGCGA | 0.0609 |
| ATCTTAGA | 0.0614 |
| ATTATGTA | 0.113 |
| ACCAGTCT | -0.0264 |
| CACTAATG | -0.0365 |
| ACGTCTGG | -0.177 |
| GTGACGCA | 0.0591 |
| AAGTATAC | 0.132 |
| ACTTGAAC | 0.0351 |
| ACTCCCCC | -0.422 |
| CGTCTCTC | -0.105 |
| ACCGGTTG | 0.119 |
| ACTCTTCA | -0.114 |
| AACTCTTG | 0.093 |
| AGTCTGGG | -0.264 |
| AACACGGC | -0.107 |
| AGACAGAT | -0.0789 |
